Data as given in the supplement of paper PMC3334620.
The full ranking holds about 33,000 sequences; the median of “E-score (-0.5 to 0.5)” is about -0.011, and the highest 2% start at about 0.28. Some of the results follow.

molecular target: T1, Gcr1 (UniProt P07261); assay: PBM E-score (8-mer binding enrichment) (E-score (-0.5 to 0.5)); higher = stronger / more preferred TF binding; most listed sequences are background and not binding sites; conditions: protein concentration: 100 nM; construct: GST-full length
T1 sequence: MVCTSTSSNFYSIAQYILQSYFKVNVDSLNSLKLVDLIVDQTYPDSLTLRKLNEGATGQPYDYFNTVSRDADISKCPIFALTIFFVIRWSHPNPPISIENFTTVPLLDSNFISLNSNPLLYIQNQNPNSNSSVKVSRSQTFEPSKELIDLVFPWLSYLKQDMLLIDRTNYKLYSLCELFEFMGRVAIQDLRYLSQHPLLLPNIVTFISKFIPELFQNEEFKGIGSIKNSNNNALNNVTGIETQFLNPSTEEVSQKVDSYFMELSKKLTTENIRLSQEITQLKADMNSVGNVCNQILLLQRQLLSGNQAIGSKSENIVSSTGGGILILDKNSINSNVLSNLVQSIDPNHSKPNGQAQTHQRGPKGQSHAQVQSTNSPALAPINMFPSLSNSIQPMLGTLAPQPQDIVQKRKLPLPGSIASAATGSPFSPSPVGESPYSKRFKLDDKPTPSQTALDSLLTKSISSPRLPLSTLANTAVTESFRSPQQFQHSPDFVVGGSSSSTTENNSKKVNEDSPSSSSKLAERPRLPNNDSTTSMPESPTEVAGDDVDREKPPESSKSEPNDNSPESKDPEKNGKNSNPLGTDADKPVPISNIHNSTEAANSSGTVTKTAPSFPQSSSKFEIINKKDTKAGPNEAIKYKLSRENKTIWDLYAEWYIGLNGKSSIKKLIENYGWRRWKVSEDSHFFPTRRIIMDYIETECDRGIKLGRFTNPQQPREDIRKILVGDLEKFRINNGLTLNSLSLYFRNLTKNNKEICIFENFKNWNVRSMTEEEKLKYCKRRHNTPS
Outline: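 Each ungapped eight-base word and its reverse complement, pooled, received an E-score from the Universal PBM Analysis Suite. Underlying scans, normalised with masliner, recorded fluorescent anti-GST bound to GST-tagged yeast transcription factors. These were applied at about 100-200 nM to universal all-10-mer Agilent arrays double-stranded by primer extension.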

Sequence | PBM E-score
AAGCTTGT | -0.144
ACAGTACT | 0.00651
CTCCCGTC | -0.0476
AGGGCTCA | -0.298
AATCGGGA | 0.0209
CTATCGAC | -0.0454
GCAAAGCA | -0.124
GCTCGGCC | -0.179
GCCAAACA | 0.15
TGTGCCAA | 0.0762
CCTGACAG | -0.178
GCCGCACC | 0.0375
CCAAGCTC | -0.108
CACAATAA | 0.138
CAGTATTC | 0.171
CAATCGGC | 0.015
ACAAATTC | 0.0316
AGTCAACT | -0.00698
CTAGTGCA | -0.201
CTGTACGC | -0.222
GCCGAAAA | 0.116
TAGGGTAA | 0.0774
CGCCATTC | 0.0469
ATCATGAT | -0.0482
ACGTGAAA | 0.174

Sequence | PBM E-score
ACCCACTA | 0.118
GTGCTCAA | 0.0993
CATCGAGG | -0.118
AGTGCCCC | -0.113
CCTCCCCC | -0.113
GGTCATAA | -0.11
ACGTCAAG | 0.0115
AAGGCACA | -0.0328
CCGTGCAC | -0.268
AAATGCCA | 0.0822
AGAAAGTA | 0.144
GGCGCGAC | 0.075
ATTATTTA | 0.148
ATATTCGA | -0.185
CCTTACTA | -0.0708
ACACTGTA | -0.0721
TCCCAGAA | 0.22
TCTCTCCA | -0.168
ATCCTCCC | -0.143
CATTACCA | 0.0152
AGGCGGGG | 0.0867
CAAGGACC | -0.118
ACGTGTAA | 0.127
AAGCGCAG | 0.0464
ACAGATAA | -0.153

Sequence | PBM E-score
CTCCGTTA | -0.134
AATCAATC | 0.15
GATGTTAA | 0.275
CCCGAATC | 0.148
TCGCCTCA | -0.0606
GTATGCGA | 0.291
AGCGTACC | -0.17
GACGGGGA | 0.0449
CGCGGGCC | -0.177
CCATTCAG | -0.0302
CAGATGCC | 0.217
ACGTGAAC | 0.0428
ATTGTGGA | 0.184
CGTGGAAC | -0.113
GCTTTGAA | -0.0279
TGATCCCA | 0.065
CACTACAG | 0.04
GGTAACCA | 0.0703
CGGAGTAC | -0.243
ATGTAGTC | -0.111
TCGGTACA | 0.0342
CGCACTTA | -0.0345
ACGTCAGG | -0.184
CATCGGGG | -0.116
AAAGGCTG | -0.022

Sequence | PBM E-score
CTGATCAC | 0.0306
AAGAACGA | 0.081
CACTTCTA | 0.00557
CCCGTGAG | -0.163
CCCGCAGG | -0.00212
TAGTACAA | 0.0587
AAAAGCCA | -0.164
GGATGGGA | -0.104
CATGGTAC | -0.0196
GCTTGGTA | -0.037
AGGTCCTA | -0.0815
ATCCTATG | 0.0596
AACGAGCA | -0.127
ATCTCCGG | -0.121
ATTAATAA | 0.16
GCTCCAAA | 0.129
CTACGCTA | -0.0939
AACGTCTC | -0.151
AATAGTCA | 0.0349
AGCAGGCC | -0.185
AATCATGG | -0.0101
TGAGGGAA | -0.101
ATTTAAGG | 0.172
CTGTGAGC | -0.061
ATCTCGAA | -0.0489

Sequence | PBM E-score
ATTTCTGG | 0.15
GGAGGATA | -0.0608
CTAGTCTC | 0.0256
CAACGCAC | -0.152
ATAATAGC | 0.085
CCCTACAC | -0.164
CGTCATCA | 0.0868
AATGAGGT | -0.024
TACACGTA | 0.228
CAAGGAGC | -0.189
CCCACAAG | 0.0598
AAGGATCG | -0.0479
CCTGTTCA | -0.00978
AAATTTTC | 0.0295
CACTTAGC | -0.041
ACTTGTGG | 0.182
ACCTATCC | 0.0168
CATGACTA | -0.0863
AATTAATG | -0.024
TCGAGACA | -0.00343
CCGGGGCC | 0.165
CCCCCCCC | -0.268
AGGTACTA | -0.094
CAAACTTC | 0.0815
CCCTGGGC | -0.166

Sequence | PBM E-score
TCGACTAA | 0.0376
CCGTGTCA | -0.125
CTGCTACA | 0.0929
CGCGGAGA | 0.0066
ATTCCTGA | 0.299
AAATGACA | -0.0546
CACGGACC | -0.112
GTCCGATA | -0.00964
TGTCGCAA | -0.124
AACCCTAG | -0.0645
AGTATCCG | 0.247
ATATCCGA | 0.0833
ACGGAGTC | -0.0283
CCCCGGTA | -0.0463
CACCCCCC | -0.285
AAAACAGC | 0.0413
ACACAGGA | 0.0754
GCATGAGC | -0.229
CGTCCAGC | -0.0635
ATTGTGGC | 0.203
AAACGACC | -0.0697
AAACCTCA | -0.0305
GAGGACGC | 0.289
GAATGAGC | -0.26
GAGCTGGC | -0.138

Sequence | PBM E-score
CCGTAGTC | -0.103
AAATAAAT | 0.0849
CATGTGCG | 0.0235
GAGCTGTA | -0.114
GGCGGCAC | -0.084
CCCTGTTA | 0.182
AGTGGTGG | 0.305
CGTGCCAA | -0.0428
AGGGGCTA | -0.0337
CGTCACTC | -0.111
TCACGCAA | -0.2
ATGGACTC | 0.201
ATTGTAAA | 0.0287
ATTCAACG | -0.0253
ACCTATAC | 0.131
CTGGGTCA | -0.0878
TATAGATA | 0.0291
AAGCCCCC | 0.057
TACCACCA | 0.0815
ATTTCTGA | -0.0909
GCATGGGC | -0.0196
CTAAACGC | 0.0998
